Reference: patent US20140289906A1, “Compositions Having Dicamba Decarboxylase Activity and Methods of Use” (priority 2013, published 2014)

Experiment: 14C assay: 14CO2 capture from [14C]-carboxyl-labeled dicamba with IPTG-induced recombinant E. coli cells
Settings: for Dicamba Decarboxylase Activity: IPTG-induced recombinant E. coli cells, 14CO2 from [14C]-carboxyl-labeled dicamba; for Enzymatic Detection level: dicamba decarboxylation activity

| Molecule | Dicamba Decarboxylase Activity | Enzymatic Detection level |
| --- | --- | --- |
| 65 (protein, listed as Ailuropoda melanoleuca) MAKIDVHSHILPKEWPDLKKRFGYGGWVQLQHHNKGEAKMMKDGKVFRVVQENCWDPEVRIREMDQTGVTVQALSTVPVMFSYWAKPQDTLDLCQLLNNDLAATVANHPRRFVGLGTLPMQAPELAVKEMERCVKELGFPGVQIGSHINEWDLNAKELFPVYAVAEKLNCSLFVHPWDMQMDGRMAKYWLPWLVGMPAETTTAICSMIMGGVFEKFPKLKVCFAHGGGAFPFTVGRISHGFNMRPDLCAQDNPINPKKYLGSFYTDSLVHDPLALKLLTDVIGKDKVILGTDYPFPLGELEPGKLIESMEEFEEETKDKLKAGNALAFLGLERKQFE | Low | Low |
| 66 (protein, listed as Amphimedon queenslandica) MASGIKVDIHNHILPERWPDLKERYGYGGWIQLHHHCQGKARMLKDGQLFRVVDENCWSPEARIKDMDNTGVTVQALSTVPVMFSYWAKPEDTLDLCKILNNDLAQTVAKFPKRFVGLGTLPMQAPELAVQELKRCIKELGFPGVQIGSHVNEWNLDATELQCVFAAAEELNAAVFVHPWDMETGGRMSKYWLPWLVGMPAETATAICSVLFGGVLERHPNLKICFAHGGGSFPYTIGRIEHGFNVRPDLCATENSVNPRSYIGKVYTDSLVHDQKALKFLVDIIGEDRVVLGSDYPFPLGEHFPGKLIESIEEWDTSLKDKLLSKNAFEFLGLDPSQYET | Low | Low |
| 67 (protein, listed as Amblyomma maculatum) MASSFSAAANLKIDLHAHVTPDRWPNLRERYGYGGWLDIKHESDKTAVMSYDDGRFFRRIESNCWNIDERIADMDRTGVTVQALSTTPVLFSYWAKPEDALDFSRLQNDFVASLVNRRPDRFVGMCTVPMQSPQLAAEELKRCVSQLGFRAVIVGSHINEWTLADRALDPFYRTVKELGVSIFVHPWDMPPSTRYNKYWLQWLVGMPAETTAAICEVIFGGLLERFPRLKLCFAHGAGSFPYTVGRIQHGFDVRPDLCAVDNKIPPKGYLGEIYADSLVHNRGSLRLLLDTLGEDRVMLGSDYPYPLGEIDRPGRLIETSGLQNSVKEKLLWKKCCELPRN | Low | Low |
